Source: the supplement of paper PMC8728848
The other results are listed elsewhere or left out.

Key:
Test in all cases: glycan array binding signal (z-score within array); higher = stronger binding
Conditions in all cases: glycan notation: IUPAC condensed, linker removed
[1] = target: Neu5Ac(a2-3)GalNAc
Method in brief: (§1)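 Glycan array binding is given as a within-array Z-score, which can be read as non-binding when negative. The arrays, 3228 of them, came from the Consortium for Functional Glycomics database and were retained only where the protein sequence was available. Z-scores were averaged across arrays of the same protein sequence at different concentrations or buffers and across linkers.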

[2] = target: Neu5Ac(a2-3)GalNAc(b1-4)GlcNAc
Method in brief: as §1

[3] = target: Neu5Ac(a2-3)[GalNAc(b1-4)]Gal(b1-4)Glc
Method in brief: as §1

[4] = target: Neu5Ac(a2-3)[GalNAc(b1-4)]Gal(b1-4)GlcNAc
Method in brief: as §1

[5] = target: Neu5Ac(a2-3)[GalNAc(b1-4)]Gal(b1-4)GlcNAc(b1-3)GalNAc
Method in brief: as §1

[6] = target: Neu5Ac(a2-3)[Neu5Ac(a2-6)]GalNAc
Method in brief: as §1

[7] = target: Neu5Ac(a2-6)Gal
Method in brief: as §1

[8] = target: Neu5Ac(a2-6)Gal(b1-3)GlcNAc(b1-3)[Gal(b1-4)GlcNAc(b1-6)]Gal(b1-4)Glc
Method in brief: as §1

[9] = target: Neu5Ac(a2-6)Gal(b1-4)Glc
Method in brief: as §1

[10] = target: Neu5Ac(a2-6)Gal(b1-4)GlcNAc
Method in brief: as §1

[11] = target: Neu5Ac(a2-6)Gal(b1-4)GlcNAc(b1-2)Man
Method in brief: as §1

[12] = target: Neu5Ac(a2-6)Gal(b1-4)GlcNAc(b1-2)Man(a1-3)Man(b1-4)GlcNAc(b1-4)GlcNAc
Method in brief: as §1

[13] = target: Neu5Ac(a2-6)Gal(b1-4)GlcNAc(b1-2)Man(a1-3)[Gal(b1-4)GlcNAc(b1-2)Man(a1-6)]Man(b1-4)GlcNAc(b1-4)GlcNAc
Method in brief: as §1

[14] = target: Neu5Ac(a2-6)Gal(b1-4)GlcNAc(b1-2)Man(a1-3)[GlcNAc(b1-2)Man(a1-6)]Man(b1-4)GlcNAc(b1-4)GlcNAc
Method in brief: as §1

[15] = target: Neu5Ac(a2-6)Gal(b1-4)GlcNAc(b1-2)Man(a1-3)[GlcNAc(b1-4)][Neu5Ac(a2-6)Gal(b1-4)GlcNAc(b1-2)Man(a1-6)]Man(b1-4)GlcNAc(b1-4)GlcNAc
Method in brief: as §1

[16] = target: Neu5Ac(a2-6)Gal(b1-4)GlcNAc(b1-2)Man(a1-3)[Man(a1-6)]Man(b1-4)GlcNAc(b1-4)GlcNAc
Method in brief: as §1

[17] = target: Neu5Ac(a2-6)Gal(b1-4)GlcNAc(b1-2)Man(a1-3)[Neu5Ac(a2-3)Gal(b1-4)GlcNAc(b1-2)Man(a1-6)]Man(b1-4)GlcNAc(b1-4)GlcNAc
Method in brief: as §1

[18] = target: Neu5Ac(a2-6)Gal(b1-4)GlcNAc(b1-2)Man(a1-3)[Neu5Ac(a2-6)Gal(b1-4)GlcNAc(b1-2)Man(a1-6)]Man(b1-4)GlcNAc(b1-4)GlcNAc
Method in brief: as §1

[19] = target: Neu5Ac(a2-6)Gal(b1-4)GlcNAc(b1-2)Man(a1-3)[Neu5Ac(a2-6)Gal(b1-4)GlcNAc(b1-2)Man(a1-6)]Man(b1-4)GlcNAc(b1-4)[Fuc(a1-6)]GlcNAc
Method in brief: as §1

[20] = target: Neu5Ac(a2-6)Gal(b1-4)GlcNAc(b1-2)Man(a1-6)Man(b1-4)GlcNAc(b1-4)GlcNAc
Method in brief: as §1

[21] = target: Neu5Ac(a2-6)Gal(b1-4)GlcNAc(b1-2)Man(a1-6)[Gal(b1-4)GlcNAc(b1-2)Man(a1-3)]Man(b1-4)GlcNAc(b1-4)GlcNAc
Method in brief: as §1

[22] = target: Neu5Ac(a2-6)Gal(b1-4)GlcNAc(b1-2)Man(a1-6)[GlcNAc(b1-2)Man(a1-3)]Man(b1-4)GlcNAc(b1-4)GlcNAc
Method in brief: as §1

[23] = target: Neu5Ac(a2-6)Gal(b1-4)GlcNAc(b1-2)Man(a1-6)[Man(a1-3)]Man(b1-4)GlcNAc(b1-4)GlcNAc
Method in brief: as §1

[24] = target: Neu5Ac(a2-6)Gal(b1-4)GlcNAc(b1-2)[Neu5Ac(a2-6)Gal(b1-4)GlcNAc(b1-4)]Man(a1-3)[GlcNAc(b1-4)][Neu5Ac(a2-6)Gal(b1-4)GlcNAc(b1-2)[Neu5Ac(a2-6)Gal(b1-4)GlcNAc(b1-6)]Man(a1-6)]Man(b1-4)GlcNAc(b1-4)GlcNAc
Method in brief: as §1

[25] = target: Neu5Ac(a2-6)Gal(b1-4)GlcNAc(b1-2)[Neu5Ac(a2-6)Gal(b1-4)GlcNAc(b1-4)]Man(a1-3)[GlcNAc(b1-4)][Neu5Ac(a2-6)Gal(b1-4)GlcNAc(b1-4)Man(a1-6)]Man(b1-4)GlcNAc(b1-4)GlcNAc
Method in brief: as §1

[26] = target: Neu5Ac(a2-6)Gal(b1-4)GlcNAc(b1-2)[Neu5Ac(a2-6)Gal(b1-4)GlcNAc(b1-6)]Man(a1-6)[Neu5Ac(a2-6)Gal(b1-4)GlcNAc(b1-2)Man(a1-3)][GlcNAc(b1-4)]Man(b1-4)GlcNAc(b1-4)GlcNAc
Method in brief: as §1

[27] = target: Neu5Ac(a2-6)Gal(b1-4)GlcNAc(b1-3)Gal(b1-3)GlcNAc
Method in brief: as §1

[28] = target: Neu5Ac(a2-6)Gal(b1-4)GlcNAc(b1-3)Gal(b1-4)GlcNAc
Method in brief: as §1

[29] = target: Neu5Ac(a2-6)Gal(b1-4)GlcNAc(b1-3)Gal(b1-4)GlcNAc(b1-2)Man(a1-3)[Neu5Ac(a2-6)Gal(b1-4)GlcNAc(b1-3)Gal(b1-4)GlcNAc(b1-2)Man(a1-6)]GalNAc
Method in brief: as §1

[30] = target: Neu5Ac(a2-6)Gal(b1-4)GlcNAc(b1-3)Gal(b1-4)GlcNAc(b1-3)Gal(b1-4)GlcNAc
Method in brief: as §1

[31] = target: Neu5Ac(a2-6)Gal(b1-4)GlcNAc(b1-3)Gal(b1-4)GlcNAc(b1-3)Gal(b1-4)GlcNAc(b1-2)Man(a1-3)[Neu5Ac(a2-6)Gal(b1-4)GlcNAc(b1-3)Gal(b1-4)GlcNAc(b1-3)Gal(b1-4)GlcNAc(b1-2)Man(a1-6)]GalNAc
Method in brief: as §1

[32] = target: Neu5Ac(a2-6)Gal(b1-4)GlcNAc(b1-3)Gal(b1-4)GlcNAc(b1-3)GalNAc
Method in brief: as §1

[33] = target: Neu5Ac(a2-6)Gal(b1-4)GlcNAc(b1-3)Gal(b1-4)GlcNAc(b1-3)[Neu5Ac(a2-6)Gal(b1-4)GlcNAc(b1-3)Gal(b1-4)GlcNAc(b1-6)]GalNAc
Method in brief: as §1

[34] = target: Neu5Ac(a2-6)Gal(b1-4)GlcNAc(b1-3)Gal(b1-4)GlcNAc(b1-6)[Gal(b1-3)]GalNAc
Method in brief: as §1

[35] = target: Neu5Ac(a2-6)Gal(b1-4)GlcNAc(b1-3)Gal(b1-4)[Fuc(a1-3)]GlcNAc(b1-3)Gal(b1-4)[Fuc(a1-3)]GlcNAc
Method in brief: as §1

[36] = target: Neu5Ac(a2-6)Gal(b1-4)GlcNAc(b1-3)GalNAc
Method in brief: as §1

[37] = target: Neu5Ac(a2-6)Gal(b1-4)GlcNAc(b1-3)[Neu5Ac(a2-6)Gal(b1-4)GlcNAc(b1-6)]GalNAc
Method in brief: as §1

B1: PX15618B-bfa-464-25-464 (Bacteroides fragilis) (protein)
chain: DQEPPLYVNENDIFTSPTRIEATLNGLYAAIKNTGTKSLMGGKSYLVFDNRGDDVINISNNLVTLFNTYNMNVGITDAENADTWTYAYLAINKVNTFLQSLEGAREVAGENYDRYVQEAKFVRALAYYYLNNLYPTPYSVNPDAKSVPLRLTAEAGTENNNMPRSTVKQIYEHILSDLENISALDTEVNTYTGVTHATQAAANMLKMRVYMAMNEWDKAITAGELVTGYSLPEDVTLIYKAPYFSQESIFSLPMADTNIPNTQQSLAEYYYDGKIMLIDTKSGIMSKPDYSLATDKRIIAFKGEKDLLMKFTDAKTKLQWVPIFRYAETLLDLAECYANKAGGEATAKSLLKQVRGRSVDAATDPLNIDNLSGDALKEAIYNEKRLEFIGEGIRGIDIMRRGEHFIKVGENETINVGPSDEKYTWPIPQVELLLNKDINK
**Q.** B1 was tested. Which “glycan array binding signal (z-score)” value [1] did it give?
**A.** Its value is 0.178.

**Q.** And the “glycan array binding signal (z-score)” value [2]?
**A.** The value was -0.311.

**Q.** And the “glycan array binding signal (z-score)” value [3]?
**A.** Its value is -0.259.

**Q.** What about the “glycan array binding signal (z-score)” value [4] of the same binder?
**A.** The value was -0.608.

**Q.** What about the “glycan array binding signal (z-score)” value [5] of the same binder?
**A.** The value was 0.625.

**Q.** And the “glycan array binding signal (z-score)” value [6]?
**A.** Its value is -0.496.

**Q.** And the “glycan array binding signal (z-score)” value [7]?
**A.** Its value is -0.353.

**Q.** What about the “glycan array binding signal (z-score)” value [8] of the same binder?
**A.** Its value is -0.4.

**Q.** What about the “glycan array binding signal (z-score)” value [9] of the same binder?
**A.** Its value is -0.015.

**Q.** What about the “glycan array binding signal (z-score)” value [10] of the same binder?
**A.** Its value is -0.437.

**Q.** And the “glycan array binding signal (z-score)” value [11]?
**A.** The value was -0.392.

**Q.** What about the “glycan array binding signal (z-score)” value [12] of the same binder?
**A.** The value was -0.143.

**Q.** And the “glycan array binding signal (z-score)” value [13]?
**A.** The value was -0.017.

**Q.** And the “glycan array binding signal (z-score)” value [14]?
**A.** The value was 0.22.

**Q.** And the “glycan array binding signal (z-score)” value [15]?
**A.** The value was 0.17.

**Q.** And the “glycan array binding signal (z-score)” value [16]?
**A.** The value was -0.272.

**Q.** And the “glycan array binding signal (z-score)” value [17]?
**A.** The value was 0.044.

**Q.** And the “glycan array binding signal (z-score)” value [18]?
**A.** Its value is 0.204.

**Q.** And the “glycan array binding signal (z-score)” value [19]?
**A.** Its value is -0.113.

**Q.** And the “glycan array binding signal (z-score)” value [20]?
**A.** Its value is -0.555.

**Q.** And the “glycan array binding signal (z-score)” value [21]?
**A.** Its value is -0.115.

**Q.** What about the “glycan array binding signal (z-score)” value [22] of the same binder?
**A.** The value was -0.065.

**Q.** And the “glycan array binding signal (z-score)” value [23]?
**A.** Its value is -0.375.

**Q.** What about the “glycan array binding signal (z-score)” value [24] of the same binder?
**A.** The value was -0.588.

**Q.** And the “glycan array binding signal (z-score)” value [25]?
**A.** The value was -0.14.

**Q.** What about the “glycan array binding signal (z-score)” value [26] of the same binder?
**A.** Its value is -0.136.

**Q.** And the “glycan array binding signal (z-score)” value [27]?
**A.** Its value is -0.118.

**Q.** And the “glycan array binding signal (z-score)” value [28]?
**A.** The value was -0.341.

**Q.** And the “glycan array binding signal (z-score)” value [29]?
**A.** The value was 0.61.

**Q.** What about the “glycan array binding signal (z-score)” value [30] of the same binder?
**A.** Its value is 0.082.

**Q.** And the “glycan array binding signal (z-score)” value [31]?
**A.** Its value is -0.364.

**Q.** And the “glycan array binding signal (z-score)” value [32]?
**A.** Its value is -0.096.

**Q.** And the “glycan array binding signal (z-score)” value [33]?
**A.** Its value is 0.339.

**Q.** What about the “glycan array binding signal (z-score)” value [34] of the same binder?
**A.** Its value is -0.921.

**Q.** And the “glycan array binding signal (z-score)” value [35]?
**A.** The value was -0.121.

**Q.** What about the “glycan array binding signal (z-score)” value [36] of the same binder?
**A.** Its value is 0.014.

**Q.** And the “glycan array binding signal (z-score)” value [37]?
**A.** The value was -0.056.
